Reference: publication PMC10726135
This is one part of the list. At the low end of the ranking the order means little. Measured with an extract: partners may take part in the binding.

Target: T1, HNF4alpha8 (COS-7 nuclear extract) (UniProt P41235-5)
T1 sequence: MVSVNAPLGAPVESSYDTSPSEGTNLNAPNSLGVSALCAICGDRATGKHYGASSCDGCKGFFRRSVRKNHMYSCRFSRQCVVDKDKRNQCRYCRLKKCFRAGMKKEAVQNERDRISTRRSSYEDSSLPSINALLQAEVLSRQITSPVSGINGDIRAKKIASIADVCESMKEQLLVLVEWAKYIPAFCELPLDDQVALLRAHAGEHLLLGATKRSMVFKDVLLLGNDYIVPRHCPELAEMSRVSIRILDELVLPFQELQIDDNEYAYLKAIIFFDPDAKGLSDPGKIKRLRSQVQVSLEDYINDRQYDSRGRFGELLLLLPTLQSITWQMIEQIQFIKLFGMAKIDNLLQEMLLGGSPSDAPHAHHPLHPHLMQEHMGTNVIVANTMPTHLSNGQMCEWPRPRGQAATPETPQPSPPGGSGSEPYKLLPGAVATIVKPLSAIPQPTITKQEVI
Experiment: protein-binding microarray
Conditions: COS-7 nuclear extract on double-stranded Agilent 4x180k PBM; binding buffer, salt, pH and temperature not given; high values mean tight binding; double strand, one strand shown; sequences stand for … in …GCCTAGGGAGATTAGAGTATCGGTCGA

Sequence	binding signal (log2 normalized intensity)
CCTTACCTCCATTAACTAACCTTTGAACCA	7.58
AGGAGGAAGGACACTTAGAGATAAGGTAAC	-1.19
TTCTCTGGTCTGCGGTTGTGTAGACGCTCT	0.329
ATTTCAAAGGGAGCATATGTATGTCAGAGT	1.63
ATGAACTTTGACCCACCTACATTGATATTC	5.5
GTTGGACTGAGGACCACATGAGTAAACAAG	-1.05
ACTAGGCTACATGATACAGCCTTTTGCCCC	3.9
ATTTGATAAGGGTATGGATTCTGGGACCCA	1.21
CCTCCCGGTCACTACAACAACGGCGGCCCA	-1.34
GAGTAACCTGCTTGTTTTCCCAACAGGTGT	0.577
GAAGTGAAGTTACAAAGGTCACGCTCCTGT	4.99
AAGAGAGAGTAGCTCCAAAAGGTGGACAAG	-1.33
CCATTCTTGAGGACAGGCCAAATCCAGTAA	-1.09
ACTGGATTCTCAGCCTCACCCTGGTGCTGC	-1.28
CTGGGGGAGTTTCCTGCCTGGTCCGCCCTT	1.74
GTCTTAATAAGATAATAAGTGACCCAGGAG	2.27
GATAAGGAACTGTTATCAAGTGAGAAACCA	-1.21
ACCCAGGCAAAGTCCAGAAATAGCATCACG	1.85
CCTGCCAGCTGTTATGAGTCTGTTGTCTAA	1.13
TGCTTTAGGCCTCAAGACAAACAATAGATA	-1.16
GTGGGTATTTGGGGAGTTCTTTCTGCCAGA	1.09
ACTATTCCTTTGTTTAGACTTGGGGCCAAA	1.51
TTAGGGGTTTGTCCAAGAAAAAGGAGCAGA	-0.959
AGGCCATTGCCTTTCTCTGTGTGTATGTGT	2.51

Sequence	binding signal (log2 normalized intensity)
TGAATATCTATTATTAGGTACAAACATACT	0.456
AGATCTGGGCAATGTCAACAAATACTGACC	1.67
GGCAGGATGCATGCACTTCATTGTGCACCC	1.62
CACAGTAAGAGACTTCACCATCTGCAAGTG	-1.21
AAGATTTATCAGGTCTTTCTTTCAGAACAG	0.553
ATCAAAAACCATTTGACAATTTACAGTGTT	-0.415
ACCTTTGAAACATATCCAGAATGTGTTTGC	1.44
AGAAAGCTTTGGACTTTGGGCTGTGTTTTG	5.52
GCCTGAGAATGAGGGGCAGGCTTAGCTGGG	-1.38
CATACCAGGCAGAGGGTTAACCCCTATTAA	2.32
GGTTTAGCAAGAATACTGCTGGGTCAGTTT	1.43
CAGTGACCCAAATATGGTCCCTGACCTTAA	4.16
ATCTAAGTGGGTCTAGGTTCTGGGGTGATT	1.54
ACACACCAAAACTCTCTCTCTGTGTCACAT	-0.0599
CAGTGACTAGCAGATTCTGTGTGGTAAAAG	0.699
TCTTGGCAGTGATCAGTGTTGAGAATCCCT	0.126
ATGAATAACTTGAATTGATTGCCAAGAGGG	-1.28
ACTGGAGCAAAGGTCACTCTTGCTAAGCTT	5.06
GCTGCTTCTCGTCCCCGCCCGAGCCGAACC	3.05
CAGGGTTAAGGTTTTGTAACACAGAGGCAG	0.757
TGCCCTTTGTCCAGGGTGAGAGGGACCCTT	2.83
GGATGTCTTTTTCTGACCCATGGGTTGAGG	2.27
GGTATGTACTTTCTTTTGGCTCTCTCTCTT	1.06
AACCCAGCAAACCTGTCTCTCTGCATTCCT	-1.33

Sequence	binding signal (log2 normalized intensity)
CATCAAACACTCACTGGGAGAGAAAGCTAA	-1.39
GTGCAGATTCCACACTGGCTAGATAAGGCT	-1.34
CTTTTATCTTAGGTAATAAGCCTGAATTCT	-0.504
TTGCAAAATCCTTAGCAAATAGAGATGCAT	-1.28
AACTGACACTTGTTTGAATTGTGATAATAA	1.04
TCACCTTTGCTCTGATCTTTGACTTCTAGT	3.44
TCATGCTTTCATCTCCCCAACACTTAAAAC	2.8
TGCAGAGAGAGAGGGAGACAACCTTTGGTC	6.08
AAGCAGAGGAGTGGCCATGATGCCATCTGG	-1.34
TTGGGGAAGAATAGATTCCATAGATAAGAG	-1.45
CTACCTGACCTGGCATACTACAGAAATCTT	-0.612
ATTAGCTGGGGACCCGTCGCTGCTGCACAC	-1.35
CCTTCAAATCAGCCAGTGATTCAACTCTGA	0.78
AAGAAGGTTTACTCAAGCAAAAAGTTTGGA	-0.349
ATGGAAGCCTTACCAGTAGGACCACATTCA	-1.33
CTTTGCCTGCCCATCCCGTGGACTCTGCCT	4.23
CTACATTAGCAGCGCCACCAACCATAATTT	2.5
GTTTTTTCTTATTTGCTCTCCTGAGGCAAG	0.989
GCTACACGGGCCTGAAAACTGGAGGCCGCG	-1.3
CAGCTGCTGGTCAAAGGGCATTACTTGCTG	3.81
ATGTTTTTGTGTGAGGGAGAAGTTTTATGG	1.58
TAGCTTTAGCCGGACTTTGTCCTTTGATTT	7.5
TCCTCTCTGAAGGATTTAAATGGAATGACC	2.77
AAAGGACATCTCCGAGTCCAGGGATAACAG	0.428

Sequence	binding signal (log2 normalized intensity)
AAGGTCACTTCGCATTTCCAAAAGAAGAAT	-1.28
AGTCATGTCTTCATGCTTTCAGCCTCTCTG	0.0037
GAGCGGCCTTCGCACCTGCCTGTCTCACCT	-0.885
CACTTCTCACATCACGTCTCTCTGGGGCCC	0.42
CTTCGTCCTTGCCCCTGGCTGGGCCCTGAC	0.733
TCAAAGGTGAGTGGGGAAAGAGCCCCTTTG	-1.31
CATGCCTAGGTAAGCCCACTAGGGAATGAA	-1.33
GAAAAGAAGGATAGAGAGTTGGGAGGGAAC	-1.29
AAAGACTTGCTCATTGATGAGTGACCTTTG	7
TCAGCCTTCTCCGCGGCGGGCCCTCGACCT	0.757
CAGCGACTTGGGAGGCTGAGGTGGAAGGAT	-1.16
TCACCTACTGACCTTTCTCCCTTTTCACAG	3.5
TGCCCCAGGAATGCCTTTTCTTTCATGTTG	1.3
AATAGATGGCGCAGCGGGTCAATTAGCTTG	1.09
GCTAGGCAGGCTCAGAACTACCAATGTTTA	-1.37
AGGCAAAGGTGTCAGGACCTTTCTTTATGG	0.451
GTAAATAACATTGCTGACCCCCTACATAGA	4.34
TGCAATGAAAGTCCACTTGTCTGGCCTTCC	1.99
CCTCTTTCCTGCAGGCCCATCTGGGACTTC	1.66
TTGGTTCAAGAGAAATGTTATCTCAGTAGA	-0.659
CAAGGGCATTTGCGTAGGCTGTCAGAGTGC	-1.22
